The list shows a part of the results. Single values of this set are uncertain. Values with irradiation are relative to irradiated vehicle.
Columns and labels:
A549-Dual [1] = test: NF-kB reporter (SEAP) activity, viability-corrected, relative to vehicle (fold change vs vehicle); higher = more activation of STING-IRF / NF-kB immune response reporter
A549-Dual [2] = test: ISRE reporter (Lucia luciferase) activity, viability-corrected, relative to vehicle (fold change vs vehicle); higher = more activation of STING-IRF / NF-kB immune response reporter
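For NF-kB reporter (SEAP) activity, viability-corrected, relative to vehicle in this document: viability correction based on the alamar blue assay, with concentrations leaving 10% survival or less dropped.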

SMILES | NF-kB reporter (A549-Dual [1]; 0.1 µM, irradiation: 8 Gy/4 fr) | NF-kB reporter (A549-Dual [1]; 0.1 µM, irradiation: none) | NF-kB reporter (A549-Dual [1]; 0.3 µM, irradiation: 8 Gy/4 fr) | NF-kB reporter (A549-Dual [1]; 0.3 µM, irradiation: none) | NF-kB reporter (A549-Dual [1]; 1 µM, irradiation: 8 Gy/4 fr) | NF-kB reporter (A549-Dual [1]; 1 µM, irradiation: none) | NF-kB reporter (A549-Dual [1]; 3 µM, irradiation: 8 Gy/4 fr) | NF-kB reporter (A549-Dual [1]; 3 µM, irradiation: none) | NF-kB reporter (A549-Dual [1]; 10 µM, irradiation: 8 Gy/4 fr) | NF-kB reporter (A549-Dual [1]; 10 µM, irradiation: none) | ISRE reporter (A549-Dual [2]; 0.1 µM, irradiation: 8 Gy/4 fr) | ISRE reporter (A549-Dual [2]; 0.1 µM, irradiation: none) | ISRE reporter (A549-Dual [2]; 0.3 µM, irradiation: 8 Gy/4 fr) | ISRE reporter (A549-Dual [2]; 0.3 µM, irradiation: none) | ISRE reporter (A549-Dual [2]; 1 µM, irradiation: 8 Gy/4 fr) | ISRE reporter (A549-Dual [2]; 1 µM, irradiation: none) | ISRE reporter (A549-Dual [2]; 3 µM, irradiation: 8 Gy/4 fr) | ISRE reporter (A549-Dual [2]; 3 µM, irradiation: none) | ISRE reporter (A549-Dual [2]; 10 µM, irradiation: 8 Gy/4 fr) | ISRE reporter (A549-Dual [2]; 10 µM, irradiation: none)
CC1CCC2C(C)C(=O)OC3OC4(C)CCC1C32OO4 (stereo not given) [Artemisinin] | 1.25 | 1.63 | 1.18 | 1.14 | 1.4 | 0.884 | 1.52 | 0.986 | 0.852 | 1.02 | 1.09 | 1.19 | 1.02 | 1.12 | 1.08 | 0.858 | 1.04 | 0.904 | 0.836 | 0.808
CC12CCC3C(CCC4=C(O)C(=O)CCC43C)C1CCC2=O (stereo not given) [Formestane] | 0.979 | 1.04 | 1.1 | 1.12 | 1.07 | 1.48 | 0.995 | 1.1 | 1 | 1.14 | 0.972 | 0.895 | 1.05 | 0.88 | 1.07 | 0.979 | 0.947 | 0.76 | 0.931 | 0.88
COC(=O)CC(O)(CCC(C)(C)O)C(=O)OC1C(OC)=CC23CCCN2CCc2cc4c(cc2C13)OCO4 (stereo not given) [Harringtonine] | 0.399 | 0.682 | 0.84 | 1.04 | 0.528 | 1.82 | 1.83 | 2.88 | 1.42 | 1.67 | 0.0362 | 0.11 | 0.0206 | 0.109 | 0.0125 | 0.122 | 0.048 | 0.167 | 0.0266 | 0.262
CC(C)C12OC1C1OC13C1(C)CCC4=C(COC4=O)C1CC1OC13C2=O (stereo not given) [Triptonide] | 0.546 | 0.809 | 0.608 | 0.738 | 0.54 | 1.39 | 0.611 | 1.35 | 0.737 | 1.05 | 0.331 | 1.19 | 0.065 | 0.412 | 0.0681 | 0.343 | 0.0654 | 0.276 | 0.0575 | 0.373
CCC1=CC2CN3CCc4c([nH]c5ccccc45)C(C(=O)OC)(C2)C13 (stereo not given) [Catharanthine] | 1.35 | 1.26 | 1.21 | 1.8 | 1.16 | 1.87 | 1.19 | 1.4 | 1.2 | 1.26 | 1.21 | 1.42 | 1.19 | 1.36 | 1.21 | 1.18 | 1.23 | 0.875 | 1.14 | 1.28
CC(C)[N+](C)(CCC(C(N)=O)(c1ccccc1)c1ccccc1)C(C)C.[I-] [Isopropamide Iodide] | 1.11 | 1.09 | 0.979 | 0.878 | 1.05 | 0.937 | 1.13 | 0.872 | 1.07 | 1.12 | 1.11 | 1.02 | 1.1 | 0.761 | 0.874 | 0.74 | 0.823 | 0.843 | 0.836 | 0.871
CC12CCC3C(CC=C4CC(O)CCC43C)C1CCC2=O (stereo not given) [Dehydroepiandrosterone (DHEA)] | 0.913 | 0.66 | 0.99 | 0.656 | 1.02 | 0.745 | 0.584 | 0.836 | 0.629 | 1 | 0.903 | 0.972 | 0.783 | 0.896 | 0.961 | 0.943 | 0.742 | 0.856 | 0.744 | 0.787
Cl.Cn1c(CCCC(=O)O)nc2cc(N(CCCl)CCCl)ccc21 [Bendamustine HCl] | 1.06 | 1.07 | 1.16 | 1.11 | 0.872 | 1.01 | 1.1 | 0.826 | 0.909 | 0.922 | 1.03 | 1.03 | 1.33 | 1.1 | 0.988 | 0.954 | 0.983 | 0.844 | 1.02 | 0.806
c1ccc2c(c1)Sc1ccccc1N2CC1CN2CCC1CC2 (stereo not given) [Mequitazine] | 1.2 | 1.57 | 1.27 | 1.4 | 1.34 | 1.11 | 1.66 | 1.15 | 0.987 | 0.446 | 1.14 | 1.47 | 1.08 | 1.36 | 1.3 | 0.988 | 1.11 | 1.7 | 1.51 | 2.31
CN(C)C(=O)Oc1cc(OC(=O)N(C)C)cc(C(O)CNC(C)(C)C)c1.Cl (stereo not given) [Bambuterol HCl] | 1.15 | 1.39 | 0.907 | 1.5 | 1.48 | 0.998 | 1.64 | 1.09 | 1.12 | 1.39 | 1.01 | 1.23 | 0.974 | 1.27 | 1.2 | 0.893 | 0.954 | 1 | 1.08 | 0.884
